Laboratory results from PubChem BioAssay AID1460 (National Center for Advancing Translational Sciences (NCATS), 2008).
About 5,800 (2.1%) of roughly 270,000 compounds were called active. The shares of active, inactive and inconclusive entries below differ from those in the screen. The call rests on the fitted dose curve; in most records, active means well fitted inhibition curve with a large enough effect; inconclusive means small, poorly fitted or top-dose-only effect; inactive means flat fitted curve, though single readings scatter. Potencies beside an inconclusive call are fits to weak or partial responses and may not hold up.

Target: Microtubule-associated protein tau (Homo sapiens) (UniProt P10636)
Experiment: qHTS for Inhibitors of Tau Fibril Formation, Thioflavin T Binding; further: nearly all actives have a fitted effect of over 55% in size
Conditions: recombinant tau K18 P301L, heparin-induced fibrillization, ThT fluorescence; series mostly up to 57.4 µM; activity, negative = inhibition: at the top concentration
Method in brief: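 Using a mix of unlabeled (15 uM) and Alexa 594-labeled (0.24 uM) tau K18 P301L, heparin-triggered fibrillization over 6 hr at 37 C was scored by ThT fluorescence.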
On the % scale 0 is the no-effect control and ±100 the full control effect; potency means the concentration at half of the fitted maximal effect; tags describe the fitted curve by direction and shape.

Sequence of UniProt P10636 (P10636 whole entry, looked up): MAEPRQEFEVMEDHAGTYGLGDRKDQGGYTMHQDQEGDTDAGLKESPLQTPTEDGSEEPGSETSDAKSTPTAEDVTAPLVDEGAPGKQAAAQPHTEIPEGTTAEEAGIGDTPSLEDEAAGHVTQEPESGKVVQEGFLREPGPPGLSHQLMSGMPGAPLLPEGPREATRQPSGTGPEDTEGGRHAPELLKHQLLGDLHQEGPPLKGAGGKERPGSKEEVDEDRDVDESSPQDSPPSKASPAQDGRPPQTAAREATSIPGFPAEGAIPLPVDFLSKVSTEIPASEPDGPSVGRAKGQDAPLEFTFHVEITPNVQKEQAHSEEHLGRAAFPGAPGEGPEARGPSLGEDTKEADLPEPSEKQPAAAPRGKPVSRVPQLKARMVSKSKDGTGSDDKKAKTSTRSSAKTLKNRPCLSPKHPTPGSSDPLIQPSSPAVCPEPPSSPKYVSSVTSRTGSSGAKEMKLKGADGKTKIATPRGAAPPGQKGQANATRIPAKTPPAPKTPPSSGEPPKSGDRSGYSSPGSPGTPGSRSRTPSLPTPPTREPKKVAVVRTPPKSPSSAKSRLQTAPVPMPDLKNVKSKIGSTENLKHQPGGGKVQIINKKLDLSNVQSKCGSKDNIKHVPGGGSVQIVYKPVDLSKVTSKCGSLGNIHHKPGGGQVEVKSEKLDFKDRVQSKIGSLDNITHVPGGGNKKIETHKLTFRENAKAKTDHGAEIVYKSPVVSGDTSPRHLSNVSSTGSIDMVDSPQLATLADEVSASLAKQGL

Row | Structure (SMILES) | Potency | activity, negative = inhibition
1 | Cc1ccc2[nH]c(=O)c(CN(Cc3ccco3)S(=O)(=O)c3c(C)ccc4nsnc34)cc2c1 | inconclusive: 12.6 µM [inhibitor, partial curve] | –
2 | Cc1cc(C)c(S(C)(=O)=O)c(Oc2ccc(C(C)(C)C)cc2)n1 | – | inactive: -9.88%
3 | Cc1cc(NS(=O)(=O)c2ccc(NC(NC(=O)C(C(F)(F)F)C(F)(F)F)(C(F)(F)F)C(F)(F)F)cc2)no1 | inconclusive: 39.8 µM [inhibitor, single point] | –
4 | CC1=CC(C)(C)Nc2ccc(OC(=O)CN3C(=O)c4ccccc4C3=O)cc21 | inconclusive: 25.1 µM [inhibitor, partial curve] | –
5 | C(=N\Nc1nc2ccccc2[nH]1)/c1cccs1 | active: 5.01 µM | –
6 | CCc1ccc(C2NC(=O)c3[nH]nc(-c4cccc(OC)c4)c32)cc1 (stereo not drawn) | – | inactive: -4.66%
7 | Cc1ccc(NC(=O)CSc2nnc(C)c(=O)[nH]2)cc1C | – | inactive: -4.41%
8 | COc1cccc2sc(N3CCN(C(=O)CCS(=O)(=O)c4ccc(F)cc4)CC3)nc12 | inconclusive: 12.6 µM [inhibitor, partial curve] | –
9 | CCOc1ccc(CNc2ccc(CNc3ncn[nH]3)cc2)cc1 | inconclusive: 17.8 µM [inhibitor, partial curve] | –
10 | Cc1cc(NC(=O)COC(=O)C2=COCCO2)c([N+](=O)[O-])cc1C | inconclusive: 22.4 µM [inhibitor, partial curve] | –
11 | CCOC(=O)CCCCC1=CC2=CC(=O)C(C)(O)C(=O)C2=CO1 (stereo not drawn) | inconclusive: 2.51 µM [inhibitor, partial curve] | –
12 | C=CCNC1=C2C[C@@H](C)C[C@H](OC)[C@H](O)[C@@H](C)/C=C(\C)[C@H](OC(N)=O)[C@@H](OC)/C=C\C=C(/C)C(=O)NC(=CC1=O)C2=O | inconclusive: 12.6 µM [inhibitor, partial curve] | –
13 | CCCc1cc(-c2[nH]ncc2-c2ccc3c(c2)OCCCO3)c(O)cc1OC | inconclusive: 17.8 µM [inhibitor, partial curve, poor fit] | –
14 | Cc1cccc(-n2ncc3c(N4CCCCCC4)ncnc32)c1 | inconclusive: 14.1 µM [inhibitor, partial curve] | –
15 | Cc1ccc(C)c(CNC(=O)c2cnc3sc(N4CCCC4)nn3c2=O)c1 | – | inactive: -2.29%
16 | O=C(Nc1cccs1)Nc1c(F)c(F)c(F)c(F)c1F | – | inactive: 0.224%
17 | COCCNC(=O)Cn1ncc2c(C)n(Cc3ccc(C)cc3)c(C)c2c1=O | inconclusive: 7.94 µM [inhibitor, single point] | –
18 | Cc1cc(=O)cc2oc3cc(N)c(-c4c(C)cc(O)cc4O)c(C)c3nc1-2 | active: 14.1 µM | –
19 | CCCOc1ccccc1C1Oc2nc(SC)nnc2-c2ccccc2N1C(C)=O (stereo not drawn) | – | inactive: -7.06%
20 | COc1cccc(N2CC(C(=O)Oc3ccc4ccccc4c3)CC2=O)c1 (stereo not drawn) | inconclusive: 10 µM [inhibitor, partial curve] | –
21 | N#CC1=C(N)C2=CCCC[C@H]2[C@H](c2ccccc2)C1(C#N)C#N | inconclusive: 22.4 µM [inhibitor, partial curve] | –
22 | N[C@@H](COP(=O)(O)O)C(=O)O | inactive | –
23 | CCOC(=O)c1ccc(-c2ccc(/C=C(\C#N)C(=O)Nc3ccc(C)cc3OC)o2)cc1 | inconclusive: 2.82 µM [inhibitor, partial curve] | –
24 | COc1ccc(-c2cc(-c3ccc(OC)cc3)[nH]n2)cc1 | inconclusive: 10 µM [activator, partial curve] | –
25 | Cc1cc(C)c(C(=O)CSC2=NC(N)=C(C#N)C3(CCCCC3)C2C(N)=O)cc1C (stereo not drawn) | active: 28.2 µM | –

Row | Structure (SMILES) | Potency | activity, negative = inhibition
26 | O=C1CN(c2ccc(Br)cc2)C(=O)N1CC(=O)N1CCCc2ccccc21 | inconclusive: 20 µM [inhibitor, partial curve, poor fit] | –
27 | CCOc1ccc(/C=C/C(=O)Nc2sc3c(c2C(=O)OC)CCC3)cc1 | inconclusive: 3.16 µM [inhibitor, full curve] | –
28 | O=C(NC(=S)N1CCCc2ccccc21)c1ccco1 | inconclusive: 20 µM [inhibitor, single point] | –
29 | CCCCC/C=C\C/C=C\CCCCCCCC(=O)O | inactive | –
30 | COc1ccc(N2CCN(C(=O)CCCSc3nc4ccccc4[nH]3)CC2)cc1 | inconclusive: 2.82 µM [inhibitor, full curve] | –
31 | CCOC(=O)/C=C/C(=O)OCC(=O)Nc1ccc(Cl)cc1Cl | inconclusive: 12.6 µM [inhibitor, partial curve] | –
32 | S=C(NCc1ccco1)N1CCN(c2nc(-c3ccc(Cl)cc3)cs2)CC1 | inconclusive: 7.08 µM [inhibitor, partial curve] | –
33 | CCOc1ccc(C(=O)CC(=O)C(=O)NCCc2ccc(OC)c(OC)c2)cc1 | inconclusive: 11.2 µM [inhibitor, partial curve] | –
34 | O=S(=O)(c1ccccc1)c1nc(-c2ccc(F)cc2)oc1N1CCCCCC1 | inconclusive: 15.8 µM [inhibitor, partial curve] | –
35 | CCc1ccc(NC(=O)CSc2nc3ncccc3[nH]2)cc1 | – | inactive: -5.52%
36 | CCOC(=O)c1nnn(CC(=O)N2N=C(c3ccccc3)CC2c2ccccc2)c1C(=O)OCC (stereo not drawn) | – | inactive: 13.3%
37 | Cc1nnc(C)c2c(C)n(Cc3ccc4c(c3)OCO4)c(C)c12 | inconclusive: 31.6 µM [inhibitor, partial curve] | –
38 | CCc1ccc(NC(=O)Cn2c(=O)n(Cc3ccc4c(c3)OCO4)c(=O)c3oc4ccccc4c32)cc1 | – | inactive: 12%
39 | C/C(=N\Nc1ccc(F)cc1F)c1cccs1 | – | inactive: -12.4%
40 | CC(C)N(C(=O)c1sc2cc([N+](=O)[O-])ccc2c1Cl)C(C)C | inconclusive: 17.8 µM [inhibitor, partial curve] | –
41 | Cc1ccc(C2=NOC(=O)/C2=C\C=C\c2ccccc2)cc1 | active: 12.6 µM | –
42 | O=C(NC[C@H](O)c1ccccc1)c1ccccc1 | – | inactive: 2.13%
43 | c1ccc(Cc2nc3ccccc3n2Cc2ccccc2)cc1 | – | inactive: -19.8%
44 | CC(=O)N1c2ccc(S(=O)(=O)N3CCN(c4cc(Cl)ccc4C)CC3)cc2CC1C (stereo not drawn) | – | inactive: 8.9%
45 | O=C(CN1CCN(Cc2ccc3c(c2)OCO3)CC1)Nc1ccc2c(c1)OCCO2 | – | inactive: -0.998%
46 | Cc1ccc(NCC(=O)N=Nc2c(O)[nH]c3ccc([N+](=O)[O-])cc23)cc1 | active: 15.8 µM | –
47 | NC(=O)c1nnn(-c2nonc2N)c1-c1ccc([N+](=O)[O-])cc1 | – | inactive: -3.13%
48 | O=C(N/N=C/c1ccccn1)c1cc(C2CC2)[nH]n1 | – | inactive: -11.9%
49 | COc1ccc2[nH]c(C(=O)N3CCCN(Cc4ccc(F)cc4)CC3)cc2c1 | inconclusive: 15.8 µM [inhibitor, partial curve] | –
50 | COc1ccc(-c2nc(C)c(CCNC(=O)c3ccco3)s2)cc1 | inconclusive: 2.82 µM [inhibitor, full curve] | –

Row | Structure (SMILES) | Potency | activity, negative = inhibition
51 | COc1ccc(N=c2ssnc2Cl)cc1 | active: 12.6 µM | –
52 | OCC1OC([S-])[C@H](O)C(O)C1O.[Au+] (stereo partly drawn) | inconclusive: 35.5 µM [inhibitor, partial curve, poor fit] | –
53 | CCOc1ccccc1CN1C(=O)c2ccccc2C1C(=O)NC1CCCCCC1 (stereo not drawn) | – | inactive: -14.5%
54 | O=C(CC1N=C2c3ccccc3N=C(SCc3ccc(F)cc3)N2C1=O)NCc1ccco1 (stereo not drawn) | inconclusive: 17.8 µM [inhibitor, partial curve] | –
55 | CCn1c(C)c(/C=N/Nc2nc3ccccc3s2)c2ccccc21 | active: 7.08 µM | –
56 | O=C(Nc1ccc(O)cc1C(=O)O)c1ccc2c(c1)C(=O)N(Cc1ccco1)C2=O | inconclusive: 15.8 µM [inhibitor, partial curve] | –
57 | COc1cc2[nH]c(=S)n(NC(=O)CC(C)C)c(=O)c2cc1OC | – | inactive: 7.77%
58 | COc1ccc(N(/N=C2\Sc3ccccc3C2=O)C(C)=O)cc1 | inconclusive: 7.94 µM [inhibitor, partial curve] | –
59 | CCOC(=O)C1CCCN(C(=O)Cn2ncc3c4ccccc4n(Cc4ccc(F)cc4)c3c2=O)C1 (stereo not drawn) | – | inactive: -4.04%
60 | CCOc1ccc(CC(=O)NNC(=O)/C=C/C(=O)O)cc1 | inconclusive: 35.5 µM [inhibitor, single point] | –
61 | Cc1onc(-c2c(F)cccc2Cl)c1C(=O)OCN1C(=O)c2ccccc2C1=O | – | inactive: -10.5%
62 | Cc1ccsc1C1C(C#N)=C(N)OC2=C1C(=O)CCC2 (stereo not drawn) | – | inactive: -7.23%
63 | CCOC(=O)CCC(=O)NNC(=O)COc1ccc(C(C)C)cc1Br | – | inactive: -3.73%
64 | COC(=O)c1ccc(CNC(=O)c2nc(Cn3nc(C)c(Br)c3C)no2)cc1 | inconclusive: 7.94 µM [inhibitor, partial curve] | –
65 | Cc1ccccc1-n1c(SCc2csc(Nc3ccccc3)n2)nnc1-c1cccnc1 | inconclusive: 22.4 µM [inhibitor, partial curve] | –
66 | O=C(CCCCCn1c(=O)[nH]c2ccccc2c1=O)N1CCN(c2ccc(Cl)cc2)CC1 | inconclusive: 0.562 µM [inhibitor, full curve] | –
67 | O=C(/C=C/Nc1ccc(F)c(Cl)c1)c1ccco1 | inconclusive: 3.16 µM [inhibitor, full curve] | –
68 | CCc1ccc(NC(=O)C2CCCN(S(=O)(=O)c3cccc4cccnc34)C2)cc1 (stereo not drawn) | – | inactive: -0.831%
69 | COc1ccc(NC(=O)N2CCCc3ccccc32)cc1 | inconclusive: 39.8 µM [inhibitor, single point] | –
70 | Cc1cc(C(=O)N/N=C2\CC(=O)c3ccccc32)c(C)n1-c1ccccc1 | inconclusive: 17.8 µM [inhibitor, single point] | –
71 | COCCn1nnnc1C1(N(Cc2cc3cc(C)ccc3[nH]c2=O)CC2CCCO2)CCN(C)CC1 (stereo not drawn) | inconclusive: 22.4 µM [inhibitor, single point] | –
72 | O=S(=O)(/N=C(/Nc1cccc2ccccc12)c1ccccc1)c1cccs1 | – | inactive: 5.77%
73 | O=C(CNC1CCCCC1)NN=C(c1ccccc1)c1ccccc1 | – | inactive: 4.32%
